# Some of the results follow.
# B1: chr17:48061271:48061372:+|3pUTR|ENSG00000082641|msi1|FALSE|unique (ssRNA)
# RNA: GGGAGUUCUACAGUCCGACGAUCAGUGAAAUGGGGGUGGGGGGAAGCACUGAUUCCCAGUUAGGGGGUGCCUAACUGAGCAGUAGGGAUAGAAGGUGUGAACCUGGGAGUGCUUUUAUAAAUUAUUUUCCUUGUAGAUUUUAUCAACAGAGGAUUGAGCAUCA
# B2: chr1:43623430:43623515:+|3pUTR|ENSG00000142949|msi1_unk|FALSE|overlapping (ssRNA)
# RNA: GGGAGUUCUACAGUCCGACGAUCGGCGGGGAAGGGUGCAUAGCUGUUUUAGCUGAGGGACGUGGUGCCGACGUCCCCAAACCUAGCUAGGCUAAGUCAAGAUCAACAUUCCAGGGUUGGUAAUGUUGGAUGAUGAAACAUUCACAACAGAGGAUUGAGCAUCA
# B3: chr13:20822168:20822271:-|CDS|ENSG00000132953|unk|FALSE|unique (ssRNA)
# RNA: GGGAGUUCUACAGUCCGACGAUCUCGAAAAAUCAGAGAAGAUUCAGAUAUGGCACAAGAUUCUCUGCAGUGCCUUGCCCAGUUAGCUUCUCUUCAUGGACCCAUCUUCCCAGAUGAAGGAUCACAAGUUGAUUAUCUAGCACACAACAGAGGAUUGAGCAUCA
# B4: chr1:117869688:117869789:-|3pUTR|ENSG00000196505|msi1|total|mutant (ssRNA)
# RNA: GGGAGUUCUACAGUCCGACGAUCACUCCAGCAGUGAGCAUUCCGAGAGUGUGUUGUCUUCCAGAGUCAUGAAUGAUUUUGUUCCGCUAUCAGGUCUACUACCUCUAAGGACAUUUCACCGCAGCAUCUCUUGAGUUGCCUGCACAACAGAGGAUUGAGCAUCA
# B5: chr1:205810550:205810651:-|5pUTR|ENSG00000133065|unk|total|mutant (ssRNA)
# RNA: GGGAGUUCUACAGUCCGACGAUCUUGCGGCUUCAGUGCUUGAUGGGGCUGCCUGUUGGUGGAUCAGUUUUUGCAGUGCCUGGCCGGAGUGGAGAGCCGUGGGAAGAGGUCCUGCGGCGCCCAAGCCUGGGUUCACCCCAAGACCAACAGAGGAUUGAGCAUCA
# B6: chr11:46542767:46542868:-|CDS|ENSG00000110497|msi1|total|mutant (ssRNA)
# RNA: GGGAGUUCUACAGUCCGACGAUCAACACGCUCCGCAACCUCAGUCUGGGUCCUACCCGCCGCUCUUUGGGAGGGCCUCUGUCCCGCCACCCUUCCCGGUAUCACCGAGAAACCGCUCCUGGGUUGACAGGAUCUGAGUGGACCCAACAGAGGAUUGAGCAUCA
# B7: ENSG00000167528:stop:overlap|stop_codon|ENSG00000167528|stop_codon|NA|stop_codon (ssRNA)
# RNA: GGGAGUUCUACAGUCCGACGAUCCCCAGGACUUAGAGGAGAGGGACAUUCUGAGGGUCACAUAUACAGGUAAGAACCUAGAAUAGGCUUUCAGCCACUUCCUUCACAGUUCGGGACAUCAUCAUUCCAUGUUCGUUUAAUCCCCAACAGAGGAUUGAGCAUCA
# B8: chr17:69153304:69154009:-|three_prime_utr|ENSG00000154263|control|control|control (ssRNA)
# RNA: GGGAGUUCUACAGUCCGACGAUCUGGGCAAAGAAGAUGCUGCUCUCAGUAUUUCACGGUACAGAGAGAAGUCUCACAAUUUGUAGCAGGAGGAAGGGGAAAAUAUGUCAUUUCUUCAUUAUAUAUUAAAAGGAAAUUAUAAACCAACAGAGGAUUGAGCAUCA
# B9: ENSG00000070961:be:win_5951|3pUTR|ENSG00000070961|bound_else_gene|NA|bound_elsewhere_windowed (ssRNA)
# RNA: GGGAGUUCUACAGUCCGACGAUCACACCAACUCUAAUCCAUAAACGGGUCUUAUGACAUCUAUGAAGUAGUAGCAAGACAUGCUUAGUGUGUAUUUCUCUCUUUGAGACACUGUAAUUUCUACCAGAAAUUUCCAGAGCAUUACAACAGAGGAUUGAGCAUCA
# B10: chr4:55904547:55904648:+|3pUTR|ENSG00000090989|msi1|FALSE|bound_elsewhere (ssRNA)
# RNA: GGGAGUUCUACAGUCCGACGAUCAAAAUACCAAGCAACUGUUUUGAGAACCCAGACUUAAAAUUUUAUGUAUUAUUAAAUGUUAGAUAAAUGGGUAGUACCAUACUACAAAUAUUUAAAUGCAAAAUUACCAACCUAUAUAGCCAACAGAGGAUUGAGCAUCA
# B11: chr18:46811193:46811294:-|3pUTR|ENSG00000078043|unk|FALSE|unique (ssRNA)
# RNA: GGGAGUUCUACAGUCCGACGAUCUUUUUUUUCAUUUUUUUAAAAUGAUAUCUUACCUGAAACUACAAACGACAAAAGAGAAUUAGAAAUGUUUGAAUUAAAGUGAAGAAGGGUUGGGGGAGAUGGGCCUGAACCCACUUCCUGCAACAGAGGAUUGAGCAUCA
# B12: chr15:64675409:64675510:+|CDS|ENSG00000180357|msi1|total|mutant (ssRNA)
# RNA: GGGAGUUCUACAGUCCGACGAUCAACCAACAGCCCUGCAUACUCUGACAUCUCUGAUGCUGGGGAGGAUGGGGAGGGCAAGGCCGACAGUGUCAAAUCAAAGGACGCCGAACAGUUGGUUAAAGAAGGGGCUAAGAAAACUCUCAACAGAGGAUUGAGCAUCA
# B13: chr20:63933867:63933968:+|3pUTR|ENSG00000101152|msi1|FALSE|unique (ssRNA)
# RNA: GGGAGUUCUACAGUCCGACGAUCAUCAGAGUGGGCCCCUUGCCAGGUGGCUUUUCAGUUACAGAGUCCAGUGGACCAUUUUGUAGAACCAUGCAGCUCCCUGCGGAAGGUGGGGUAGGGUGGGAAAGAGGAGCAGGUCUGGAGCAACAGAGGAUUGAGCAUCA
# B14: chr16:67098774:67098826:+|CDS_3pUTR|ENSG00000067955|msi1_unk|total|mutant (ssRNA)
# RNA: GGGAGUUCUACAGUCCGACGAUCAGACCCCCGUCCUGGUUCCAAUUCCGGUGGUGGUGAUGACCUCAAACUUCGUUAAUUAACCGCACAGCAGAUGUGUGCUGCCCAUCUUUACAUACACAUUGCUUCCCGUUGGCAGAAAUACAACAGAGGAUUGAGCAUCA
# B15: chr1:167421552:167421653:+|3pUTR|ENSG00000143190|unk|total|mutant (ssRNA)
# RNA: GGGAGUUCUACAGUCCGACGAUCUUUUCUUCUAACCUUAUUCAUUAAGCCGUUCCUUGUUUUGGCCCUUCUACUCUUGGCCUCCGCUAAAAGCAGUAAAUGUGAGUGAAUUUUAUGUUGAUUAUGUCACCUGGAUCUCCUUUCCAACAGAGGAUUGAGCAUCA
# B16: chr1:24654915:24655033:+|CDS|ENSG00000133226|unk|total|mutant (ssRNA)
# RNA: GGGAGUUCUACAGUCCGACGAUCUCACGGUCACCACCAAAGAAGCCUCCCAAGAGGACAUCCAGCCCCCCUCGGAAAACUCGCCGGUUAUCUCCUUCAGCAAGUCCUCCAAGGCGAAGGCACAGGCCAUCACCUCCUGCAACUCAACAGAGGAUUGAGCAUCA
# B17: chr9:74692981:74693082:+|3pUTR|ENSG00000198963|unk|FALSE|unique (ssRNA)
# RNA: GGGAGUUCUACAGUCCGACGAUCUUUUAUAUUACUUUAGAAUGUAAUAGGUUUUUGUCCUUAUUUUAUGUCCUGUAAAUUAUUAGUUCAAUACUGUUAGCAUUCCCGGAUAAUGCACACAUGAUUUCUGAAUGUUUUCUGUAACAACAGAGGAUUGAGCAUCA
# B18: chr5:90513983:90514084:+|3pUTR|ENSG00000113356|unk|total|mutant (ssRNA)
# RNA: GGGAGUUCUACAGUCCGACGAUCAAAUACACUGAAGAUAAAGGUUAUUUCUUUUUUCCGCUUUGAAUUUGUCAUGACCAUUUCCGUCUUGCAGACCGCAGGGCAGCCCCUUGGGGCAAGGAUUUACUCUGGGAGGUACCGUUACAACAGAGGAUUGAGCAUCA
# B19: chr2:73958838:73958951:+|3pUTR|ENSG00000114956|unk|total|mutant (ssRNA)
# RNA: GGGAGUUCUACAGUCCGACGAUCCCAGCCCCUCUCAUCCCUGGAGCACUCUGCCGCUCAAGAGCUGGUUUGUUAAUUAUUGUCCGACUUUGCCAUUGUUUUCUUUUGUACCUGAAGCAUUUUGAAAAUAAAGUUUACUUAAGUCAACAGAGGAUUGAGCAUCA
# B20: ENSG00000124766:be:win_2401|3pUTR|ENSG00000124766|bound_else_gene|NA|bound_elsewhere_windowed (ssRNA)
# RNA: GGGAGUUCUACAGUCCGACGAUCCAGUCAGUGGAGGGCGAGUGGUUUCGGAAAAAAAAAAAGAAAAAAAGAAAAAAAAAGAAAAAAAAAAGAUUUUUUUCUUCUCUUAAUCGGAAUCGUGAUGGUGUUGGAUUAUUUCAAUGGCAACAGAGGAUUGAGCAUCA
# B21: ENSG00000180900:stop:overlap|stop_codon|ENSG00000180900|stop_codon|NA|stop_codon (ssRNA)
# RNA: GGGAGUUCUACAGUCCGACGAUCUGUGCAGCAGCCGCCGCCCCGUAAGGCCUGGGCGCCGUGGCCUGGGCCCUGUGCCCUCCUAGAGGAGCAGGCACCUCCCCCAGACUUGGGGUGGGGGCCCUGCCAGCUCCAGCACCACCCCAACAGAGGAUUGAGCAUCA
# B22: chr1:193014253:193014354:-|3pUTR|ENSG00000116750|unk|total|mutant (ssRNA)
# RNA: GGGAGUUCUACAGUCCGACGAUCUUAACCGGUAUAAGGAUUUUUCUUAUUAAUCUAAUAAAAUUCCUUAACCGGAAUUUCCACCGCUUAAGAGUGGUUUAUUUUAUCUGCAUCUUCUUUGGUGAUUGCAAAUCCCUUGUGAUACAACAGAGGAUUGAGCAUCA
# Target: MSI1 full-length (mouse, UniProt Q61474 1-362)
# Test: nsRBNS (natural sequence RNA bind-n-seq); RBNS binding buffer (assumed for nsRBNS): 25 mM Tris pH 7.5, 150 mM KCl, 3 mM MgCl2, 0.01% Triton X-100, 500 ug/ml BSA, 20 U/ml SUPERase-In, 4 C; UNK is unkempt and MSI1 is Musashi-1; names of the RNAs are library labels; protein concentration not given here; high values mean tight binding
# Sequence of UniProt Q61474 (Q61474 whole entry): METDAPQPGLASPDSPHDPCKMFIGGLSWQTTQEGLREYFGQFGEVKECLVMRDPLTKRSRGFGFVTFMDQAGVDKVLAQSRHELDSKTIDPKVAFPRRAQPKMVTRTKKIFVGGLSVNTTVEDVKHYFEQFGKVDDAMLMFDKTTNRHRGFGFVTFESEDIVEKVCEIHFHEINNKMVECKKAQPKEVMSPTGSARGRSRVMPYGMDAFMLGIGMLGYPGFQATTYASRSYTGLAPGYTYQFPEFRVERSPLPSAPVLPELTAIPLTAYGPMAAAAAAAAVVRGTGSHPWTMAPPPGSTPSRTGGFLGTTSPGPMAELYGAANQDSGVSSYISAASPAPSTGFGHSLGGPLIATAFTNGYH
row,Binder,binding signal [enrichment R]
1,B1,4.67
2,B2,0.624
3,B3,0.341
4,B4,0.256
5,B5,0.397
6,B6,0.529
7,B7,2.72
8,B8,0.516
9,B9,0.756
10,B10,4.22
11,B11,0.704
12,B12,0.416
13,B13,0.648
14,B14,0.617
15,B15,0.517
16,B16,0.541
17,B17,2.02
18,B18,0.317
19,B19,0.566
20,B20,0.561
21,B21,0.448
22,B22,0.327

# Reference: publication PMC12136788
